The source of these data is the supplement of paper PMC9588766.

Molecules are shown by their SMILES. Where a name gives a salt, the structure may show the parent alone. In all, about 1,900 compounds were measured (“cell viability of compound + 1 nM pemigatinib relative to pemigatinib-only (DMSO) wells”: median about 0.95, lowest 2% from about 0.22 on). The list shows a part of the results.

The assay has as its system PDC-DUC18828. The assay can be described thus: cell viability of compound + 1 nM pemigatinib relative to pemigatinib-only (DMSO) wells (fraction); PDC-DUC18828 is a patient-derived cholangiocarcinoma cell line; higher = less growth inhibition. The settings on record: first compound 1 µM; pemigatinib concentration 1 nM; 72 h. As for the experimental part: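 Selleck Bioactive library screen in the patient-derived FGFR2 fusion-positive ICC cell line PDC-DUC18828 (500 cells/well). Each compound was tested at 1 uM with 1 nM pemigatinib, in triplicate, for 72 h. Viability was read by CellTiter-Glo and normalised to plate DMSO controls. Value is the paper's averaged normalised viability.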
`C=C1CC[C@H](O)C/C1=C/C=C1\CCC[C@]2(C)[C@@H]([C@H](C)CCCC(C)C)CC[C@@H]12` [Vitamin D3] + CCN1C(=O)N(c2c(F)c(OC)cc(OC)c2F)Cc2cnc3[nH]c(CN4CCOCC4)cc3c21 [pemigatinib]: the cell viability was found to be 0.931.

For `O=C(O)[C@]1(Cc2cccc(Nc3nccs3)n2)CC[C@@H](Oc2cccc(Cl)c2F)CC1` + CCN1C(=O)N(c2c(F)c(OC)cc(OC)c2F)Cc2cnc3[nH]c(CN4CCOCC4)cc3c21 [pemigatinib], the cell viability worked out at 0.355.

As for `COc1cc2c(Nc3ccc(NC(=O)c4ccccc4)cc3)ncnc2cc1OCCCN1CCOCC1` + CCN1C(=O)N(c2c(F)c(OC)cc(OC)c2F)Cc2cnc3[nH]c(CN4CCOCC4)cc3c21 [pemigatinib], the cell viability is 0.872.

Consider `CC(=O)Nc1ccc(C(=O)Nc2ccccc2N)cc1` [CI994 (Tacedinaline)] + CCN1C(=O)N(c2c(F)c(OC)cc(OC)c2F)Cc2cnc3[nH]c(CN4CCOCC4)cc3c21 [pemigatinib], for which the cell viability stood at 0.834.

Take `COc1cccc2c1c(O)c(C(=O)N(C)c1ccc(C(F)(F)F)cc1)c(=O)n2C` [Tasquinimod] + CCN1C(=O)N(c2c(F)c(OC)cc(OC)c2F)Cc2cnc3[nH]c(CN4CCOCC4)cc3c21 [pemigatinib]: the cell viability turned out to be 0.875.

In the case of `CCCc1cc(C(N)=S)ccn1` [Protionamide] + CCN1C(=O)N(c2c(F)c(OC)cc(OC)c2F)Cc2cnc3[nH]c(CN4CCOCC4)cc3c21 [pemigatinib], the cell viability is 0.979.

Consider `C#Cc1cccc(Nc2ncnc3cc(OC)c(OCCCCCCC(=O)NO)cc23)c1` + CCN1C(=O)N(c2c(F)c(OC)cc(OC)c2F)Cc2cnc3[nH]c(CN4CCOCC4)cc3c21 [pemigatinib], for which the cell viability came to 0.972.

For `CC(=O)S[C@@H]1CC2=CC(=O)CC[C@]2(C)[C@H]2CC[C@@]3(C)[C@@H](CC[C@@]34CCC(=O)O4)[C@H]12` [Spironolactone] + CCN1C(=O)N(c2c(F)c(OC)cc(OC)c2F)Cc2cnc3[nH]c(CN4CCOCC4)cc3c21 [pemigatinib], the cell viability is 0.949.

Consider `CCOC(=O)[C@@H](N)Cc1ccc(-c2cc(O[C@H](c3ccc(Cl)cc3-n3ccc(C)n3)C(F)(F)F)nc(N)n2)cc1` [Telotristat Etiprate (LX 1606 Hippurate)] + CCN1C(=O)N(c2c(F)c(OC)cc(OC)c2F)Cc2cnc3[nH]c(CN4CCOCC4)cc3c21 [pemigatinib], for which the cell viability amounted to 0.974.

Consider `CN1CCN(C2=Nc3ccccc3Oc3ccc(Cl)cc32)CC1` [Loxapine Succinate] + CCN1C(=O)N(c2c(F)c(OC)cc(OC)c2F)Cc2cnc3[nH]c(CN4CCOCC4)cc3c21 [pemigatinib], for which the cell viability came to 0.981.

Regarding `CC(C)CC(N)=O` [Isovaleramide] + CCN1C(=O)N(c2c(F)c(OC)cc(OC)c2F)Cc2cnc3[nH]c(CN4CCOCC4)cc3c21 [pemigatinib], the cell viability was found to be 0.993.

Consider `COc1c2occc2cc2ccc(=O)oc12` [Methoxsalen] + CCN1C(=O)N(c2c(F)c(OC)cc(OC)c2F)Cc2cnc3[nH]c(CN4CCOCC4)cc3c21 [pemigatinib], for which the cell viability was found to be 1.02.

With `N=C(NCCCCCCNC(=N)NC(=N)Nc1ccc(Cl)cc1)NC(=N)Nc1ccc(Cl)cc1` [Chlorhexidine HCl] + CCN1C(=O)N(c2c(F)c(OC)cc(OC)c2F)Cc2cnc3[nH]c(CN4CCOCC4)cc3c21 [pemigatinib], the cell viability worked out at 0.887.

`N#Cc1ccc(C(c2ccc(C#N)cc2)n2cncn2)cc1` [Letrozole] + CCN1C(=O)N(c2c(F)c(OC)cc(OC)c2F)Cc2cnc3[nH]c(CN4CCOCC4)cc3c21 [pemigatinib]: the cell viability was 0.991.

Turning to `Clc1ccc(CCC(Cn2ccnc2)Sc2c(Cl)cccc2Cl)cc1` (centres undefined) [Butoconazole nitrate] + CCN1C(=O)N(c2c(F)c(OC)cc(OC)c2F)Cc2cnc3[nH]c(CN4CCOCC4)cc3c21 [pemigatinib], the cell viability worked out at 0.98.

For `C[C@@]1(C(=O)Nc2ccc(F)nc2)CCCN1c1nc(Nc2cc(C3CC3)n[nH]2)c2cccn2n1` + CCN1C(=O)N(c2c(F)c(OC)cc(OC)c2F)Cc2cnc3[nH]c(CN4CCOCC4)cc3c21 [pemigatinib], the cell viability was 0.688.

In the case of `CN(C)C(=O)Nc1cccc(-c2ccc(N(C)C)cc2)c1` [Atglistatin] + CCN1C(=O)N(c2c(F)c(OC)cc(OC)c2F)Cc2cnc3[nH]c(CN4CCOCC4)cc3c21 [pemigatinib], the cell viability was 0.956.

`O=C(Nc1cccc(Cl)c1)c1ccccn1` + CCN1C(=O)N(c2c(F)c(OC)cc(OC)c2F)Cc2cnc3[nH]c(CN4CCOCC4)cc3c21 [pemigatinib]: the cell viability turned out to be 0.902.

Turning to `C[C@@H]1C[C@H]2[C@@H]3C[C@H](F)C4=CC(=O)C=C[C@]4(C)[C@@]3(F)[C@@H](O)C[C@]2(C)[C@@]1(O)C(=O)CO` [Flumethasone] + CCN1C(=O)N(c2c(F)c(OC)cc(OC)c2F)Cc2cnc3[nH]c(CN4CCOCC4)cc3c21 [pemigatinib], the cell viability was found to be 0.883.

Turning to `O=C(NC[C@H]1CN(c2ccc(N3CCOCC3=O)cc2)C(=O)O1)c1ccc(Cl)s1` [Rivaroxaban] + CCN1C(=O)N(c2c(F)c(OC)cc(OC)c2F)Cc2cnc3[nH]c(CN4CCOCC4)cc3c21 [pemigatinib], the cell viability was found to be 0.867.

For the compound `Cc1nnc(C(=O)NC(C)(C)c2nc(C(=O)NCc3ccc(F)cc3)c(O)c(=O)n2C)o1` [Raltegravir (MK-0518)] + CCN1C(=O)N(c2c(F)c(OC)cc(OC)c2F)Cc2cnc3[nH]c(CN4CCOCC4)cc3c21 [pemigatinib], the cell viability is 0.97.

With `c1ccc(NCc2ccc(CNc3ccccn3)cc2)nc1` + CCN1C(=O)N(c2c(F)c(OC)cc(OC)c2F)Cc2cnc3[nH]c(CN4CCOCC4)cc3c21 [pemigatinib], the cell viability stood at 0.885.

Consider `CN1CCN(Cc2ccc(Nc3ncc(Cl)c(Nc4ccccc4S(=O)(=O)N(C)C)n3)cc2)CC1` + CCN1C(=O)N(c2c(F)c(OC)cc(OC)c2F)Cc2cnc3[nH]c(CN4CCOCC4)cc3c21 [pemigatinib], for which the cell viability came to 0.839.

Take `COC(=O)c1ccc2c(c1)nc(NC(=O)c1ccccc1)n2CCCc1ccccc1` + CCN1C(=O)N(c2c(F)c(OC)cc(OC)c2F)Cc2cnc3[nH]c(CN4CCOCC4)cc3c21 [pemigatinib]: the cell viability was found to be 0.959.
